Source: PubChem BioAssay AID360 (National Center for Advancing Translational Sciences (NCATS), 2006)
Screen size: about 48,000 compounds; about 550 (1.1%) were called active. Not shown: some 4% with an inconclusive outcome. Rule as the data show it: active = potency below about 15 µM; inconclusive = mostly about 16 µM to 33 µM; inactive = weaker than that. Some of the results follow.

target: Lysosomal acid glucosylceramidase (Homo sapiens) (UniProt P04062); assay: Glucocerebrosidase; settings: purified enzyme, resorufin glucoside fluorescence (screen aimed at inhibitors), 20 min; series mostly up to 77 µM;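 also: the screen sought inhibitors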
UniProt P04062, sequence (P04062 whole entry, looked up): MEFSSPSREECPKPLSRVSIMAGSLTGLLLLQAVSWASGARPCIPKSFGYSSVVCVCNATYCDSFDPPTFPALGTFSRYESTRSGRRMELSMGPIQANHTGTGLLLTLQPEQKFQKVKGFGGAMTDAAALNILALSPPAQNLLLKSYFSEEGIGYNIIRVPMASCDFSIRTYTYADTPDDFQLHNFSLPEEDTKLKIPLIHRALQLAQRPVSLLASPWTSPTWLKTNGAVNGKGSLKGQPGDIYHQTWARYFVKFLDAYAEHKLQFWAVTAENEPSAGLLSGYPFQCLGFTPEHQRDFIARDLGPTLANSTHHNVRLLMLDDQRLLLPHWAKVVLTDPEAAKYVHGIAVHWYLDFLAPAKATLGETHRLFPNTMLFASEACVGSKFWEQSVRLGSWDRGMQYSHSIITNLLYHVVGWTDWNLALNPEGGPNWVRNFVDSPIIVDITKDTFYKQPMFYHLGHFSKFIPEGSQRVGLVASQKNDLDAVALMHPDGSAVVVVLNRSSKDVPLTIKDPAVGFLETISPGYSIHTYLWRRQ
Method in brief: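 Normal human glucocerebrosidase (0.2 nM final) was assayed with resorufin β-D-glucopyranoside (30 uM final) in 50mM citric acid/KH2PO4, 10mM sodium taurocholate, 0.01% tween-20, pH 5.9. Compounds were titrated; fluorescence (Ex 548, Em 600) read after 20 min at RT.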
Potency is read from the fitted curve at half-maximal effect.

SMILES	Potency
COCCN(CCOC)C(=O)c1sc2nc(-c3ccccc3)cn2c1C	inactive: > 76.9 µM
CCOC(=O)c1ccc2c(c1)n(CCO)c(C)[n+]2CC	inactive: > 76.9 µM
COc1ccc(C(CNC(=O)Cc2cc(OC)c(OC)c(OC)c2)N2CCCC2)cc1 (stereo not given)	inactive: > 76.9 µM
c1ccc2c(-c3ccncc3)c[nH]c2c1	inactive: > 76.9 µM
COc1cccc(-c2nnc3sc(-c4ccccn4)nn23)c1	inactive: > 76.9 µM
CCOC(=O)C(NC(=O)Nc1ccc(F)cc1)(OCC)C(F)(F)F (stereo not given)	inactive: > 76.9 µM
O=C(COC(=O)CCOc1ccccc1)NCc1ccco1	inactive: > 76.9 µM
Cc1cc(C)n(-c2nnc(C)n2NS(=O)(=O)c2ccc(F)cc2)n1	inactive: > 76.9 µM
COCCCNC(=O)COc1ccc(S(=O)(=O)Nc2ccccc2)cc1	inactive: > 76.9 µM
COc1ccccc1N1CC(C(=O)OC(C)C(=O)N2CCCc3ccccc32)CC1=O (stereo not given)	inactive: > 76.9 µM
O=C1CCCC2=C1C(c1ccc(Br)cc1)c1c([nH]c(=S)[nH]c1=O)N2 (stereo not given)	inactive
CCOC(=O)Nc1cc2c(C)cc(=O)oc2cc1C	inactive: > 76.9 µM
COCCNC(=O)c1ccccc1-c1ccccc1C(=O)O	inactive
CN(C)CCCN1C(=O)C(=O)/C(=C(/O)c2ccc3c(c2)OCCO3)C1c1ccco1 (stereo not given)	inactive: > 76.9 µM
CC(C)Cc1nnc(NC(=O)c2ccncc2)s1	inactive: > 76.9 µM
O=C1c2ccccc2C2(c3ccccc3)NCCN12 (stereo not given)	inactive: > 76.9 µM
Cc1ccc(S(=O)(=O)Nc2nc3ccccc3nc2NCc2ccco2)cc1C	inactive: > 76.9 µM
CCOc1ccccc1N(CC(=O)Nc1ccccc1C(=O)NCc1ccco1)S(C)(=O)=O	inactive: > 76.9 µM
Cc1ccc(S(=O)(=O)c2c(N)n(CCN3CCOCC3)c3nc4ccccc4nc23)cc1C	inactive
COc1ccc(Oc2c(-c3ccc(O)cc3O)n[nH]c2C)cc1	inactive: > 76.9 µM
CN(c1ccc(C(=O)NCc2cccnc2)cc1)S(C)(=O)=O	inactive: > 76.9 µM
COc1ccccc1Nc1nc(C)cc(C)c1C(N)=O	inactive: > 76.9 µM
O=C1CCC(=O)N1OCCOc1ccc2c(c1)CCC2	inactive: > 76.9 µM

SMILES	Potency
Cc1ccc(NC(=O)CN2C(=O)NC(Cc3ccccc3)C2=O)cc1 (stereo not given)	inactive: > 76.9 µM
NC(=O)C1CC(=O)N(c2ccc(OCC(=O)Nc3cccc(C(F)(F)F)c3)cc2)C1 (stereo not given)	inactive: > 76.9 µM
C=CCN1CN(S(=O)(=O)c2cccs2)c2nc3ccccc3nc21	inactive: > 76.9 µM
COc1cc(S(=O)(=O)NCC2COCCO2)ccc1-n1cnnn1 (stereo not given)	inactive: > 76.9 µM
COCCN(C(=O)c1csnn1)C(C(=O)NC(C)(C)C)c1cccc(OC)c1 (stereo not given)	inactive: > 76.9 µM
Cc1c(C(=O)O)sc2nc3n(c(=O)c12)CCC(C)CC3 (stereo not given)	inactive: > 76.9 µM
CCn1c(CSc2ncccn2)nnc1SCC(=O)N1CCc2ccccc21	inactive: > 76.9 µM
COc1ccc(N(CC(=O)Nc2ccccc2SC)S(C)(=O)=O)cc1OC	inactive: > 76.9 µM
Cc1ccc(CNC(=O)CSc2ncccn2)cc1	inactive: > 76.9 µM
COc1ccc(C2CC(=O)c3cnc(NC(=O)c4cccc(OC)c4)nc3C2)cc1 (stereo not given)	inactive: > 76.9 µM
CC(=O)N(c1ccc(C(C)C)cc1)C1C=CS(=O)(=O)C1 (stereo not given)	inactive: > 76.9 µM
O=C(c1noc2c1CCCC2)N1CCCCC1	inactive: > 76.9 µM
COc1ccc(C2CC(c3ccccc3)Nc3nc(NC(=O)c4cccs4)nn32)cc1 (stereo not given)	inactive: > 76.9 µM
CCOc1ccccc1NC(=O)CN(C)S(=O)(=O)c1ccc(OC)c(C)c1	inactive: > 76.9 µM
O=S(=O)(NCc1ccc2c(c1)OCO2)c1cccc(S(=O)(=O)N2CCOCC2)c1	inactive: > 76.9 µM
Cc1ccc2nsnc2c1S(=O)(=O)NCc1ccc2c(c1)OCO2	inactive: > 76.9 µM
COc1ccc(NC(=O)Cn2nnc(-c3ccccc3NC(=O)c3ccco3)n2)cc1	active: 7.17 µM
CCOC(=O)C1CCCN(C(=O)CNC(=O)Cn2ccc3ccccc3c2=O)C1 (stereo not given)	inactive: > 76.9 µM
Cc1cc(C(=O)CSc2nnnn2C)c(C)n1CCc1ccc(F)cc1	inactive: > 76.9 µM
CC(C)=C1C2CC2C2C(C(=O)O)C12 (stereo not given)	inactive: > 76.9 µM
COc1ccc(-c2noc(CCC(=O)N(C)c3cccc(C)c3)n2)cc1	inactive: > 76.9 µM
COc1ccc(CNC(=O)C2CCCN2C(=O)NC2CCCCC2)cc1 (stereo not given)	inactive: > 76.9 µM
